The source of these data is PMC5540273 (PLoS ONE, 2017).

For part of these data: This list holds what a sample rich in strong results left over. This is a selection; strong and weak results do not stand in their true shares.
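Further: KINOMEscan kinase panel screen.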

One assay has as its system EPHB3. Particulars: concentration: 1 μM,replicates: in singlicate; n = 1.
For `CSc1ccc(NC2=C(c3cccc(Cl)c3)C(=O)NC2=O)cc1` [SB-341528], the “%Inh” value is 3%.
On the same count and under the same terms, the result for `CS(=O)(=O)c1ccccc1-c1nc(-c2ccc(F)cc2)c(-c2ccncc2)[nH]1` [SB-213663] reads 0%; that for `O=C1NC(=O)C(c2ccccc2)=C1Nc1ccc(Cl)c(C(=O)O)c1` [SB-390532], 13%.

The next assay deals with EPHB4. To be noted: concentration: 1 μM,replicates: in singlicate; n = 1.
In the case of `O=C1NC(=O)C(c2ccccc2)=C1Nc1cc(Cl)c(O)c(Cl)c1` [SB-390530], the “%Inh” value is 12%.
The same measure, in the same setting: the result for `O=C1NC(=O)C(c2ccccc2Cl)=C1Nc1cccc(C(=O)O)c1` [SB-390526] reads 22%; that for `O=C1NC(=O)C(c2ccc(Cl)cc2)=C1Nc1ccccc1` [SB-317661], 0%.
Same read-out and setting: the result for `COc1ccc(C2=C(Nc3cccc(Cl)c3)C(=O)NC2=O)cc1` [SB-326892] reads 29%; that for `O=C1NC(=O)C(c2ccc(Cl)cc2)=C1Nc1cccc(O)c1` [SB-333613], 0%; that for `O=C(O)c1ccc(-c2nc(-c3ccc(F)cc3)c(-c3ccncc3)[nH]2)cc1` [SB-202620], 13%.
As to `O=C1NC(=O)C(c2ccc(Cl)cc2)=C1Nc1ccc(O)c(Cl)c1` [SB-405367], the “%Inh” value amounted to 0%.
Still for that read-out and setting: the figure for `O=C1NC(=O)C(c2ccccc2Cl)=C1Nc1ccccc1` [SB-376715] is 0%; for `Cc1ccc(C)c(Oc2nccc(-c3c(-c4ccc(F)cc4)ncn3C3CCNCC3)n2)c1.O=C(O)C(F)(F)F.O=C(O)C(F)(F)F.O=C(O)C(F)(F)F` [SB-284852] it is 52%.
Same read-out and setting: the figure for `O=C1NC(=O)C(c2ccc(Cl)cc2)=C1Nc1cccc(C(=O)O)c1` [SB-360737] is 0%; for `Cc1cc(C)cc(Oc2nccc(-c3c(-c4ccc(F)cc4)ncn3C3CCNCC3)n2)c1.O=C(O)C(F)(F)F.O=C(O)C(F)(F)F.O=C(O)C(F)(F)F` [SB-284851] it is 3%; for `COc1cccc(C2=C(Nc3ccc(SC)cc3)C(=O)NC2=O)c1` [SB-331032] it is 0%.
Still for that read-out and setting: the figure for `O=C1NC(=O)c2c1c(-c1ccccc1)cc1[nH]c3ccc(O)cc3c21` is 16%.
For the molecule `CSc1ccc(NC2=C(c3cccc(Cl)c3)C(=O)NC2=O)cc1` [SB-341528], the “%Inh” value came out at 0%.
The same measure, in the same setting: the figure for `CS(=O)(=O)c1ccccc1-c1nc(-c2ccc(F)cc2)c(-c2ccncc2)[nH]1` [SB-213663] is 0%; for `O=C1NC(=O)C(c2ccccc2)=C1Nc1ccc(Cl)c(C(=O)O)c1` [SB-390532] it is 10%.

The test system of the next assay is EPHB6. To be noted: concentration: 1 μM,replicates: in singlicate; n = 1.
With `O=C1NC(=O)C(c2ccccc2)=C1Nc1cc(Cl)c(O)c(Cl)c1` [SB-390530], the “%Inh” value was found to be 56%.
For the molecule `O=C1NC(=O)C(c2ccccc2Cl)=C1Nc1cccc(C(=O)O)c1` [SB-390526], the “%Inh” value was 22%.
Same read-out and setting: the figure for `O=C1NC(=O)C(c2ccc(Cl)cc2)=C1Nc1ccccc1` [SB-317661] is 0%; for `COc1ccc(C2=C(Nc3cccc(Cl)c3)C(=O)NC2=O)cc1` [SB-326892] it is 18%.
On the same count and under the same terms, the figure for `O=C1NC(=O)C(c2ccc(Cl)cc2)=C1Nc1cccc(O)c1` [SB-333613] is 38%.
The same measure, in the same setting: the figure for `O=C(O)c1ccc(-c2nc(-c3ccc(F)cc3)c(-c3ccncc3)[nH]2)cc1` [SB-202620] is 51%.
On to `O=C1NC(=O)C(c2ccc(Cl)cc2)=C1Nc1ccc(O)c(Cl)c1` [SB-405367], for which the “%Inh” value is 24%.
Still for that read-out and setting: the figure for `O=C1NC(=O)C(c2ccccc2Cl)=C1Nc1ccccc1` [SB-376715] is 11%.
Still for that read-out and setting: the result for `Cc1ccc(C)c(Oc2nccc(-c3c(-c4ccc(F)cc4)ncn3C3CCNCC3)n2)c1.O=C(O)C(F)(F)F.O=C(O)C(F)(F)F.O=C(O)C(F)(F)F` [SB-284852] reads 0%; that for `O=C1NC(=O)C(c2ccc(Cl)cc2)=C1Nc1cccc(C(=O)O)c1` [SB-360737], 16%.
Same read-out and setting: the figure for `Cc1cc(C)cc(Oc2nccc(-c3c(-c4ccc(F)cc4)ncn3C3CCNCC3)n2)c1.O=C(O)C(F)(F)F.O=C(O)C(F)(F)F.O=C(O)C(F)(F)F` [SB-284851] is 0%; for `COc1cccc(C2=C(Nc3ccc(SC)cc3)C(=O)NC2=O)c1` [SB-331032] it is 13%; for `O=C1NC(=O)c2c1c(-c1ccccc1)cc1[nH]c3ccc(O)cc3c21` it is 90.5%.
With `CSc1ccc(NC2=C(c3cccc(Cl)c3)C(=O)NC2=O)cc1` [SB-341528], the “%Inh” value was 15%.
Take `CS(=O)(=O)c1ccccc1-c1nc(-c2ccc(F)cc2)c(-c2ccncc2)[nH]1` [SB-213663]: the “%Inh” value stood at 10%.
On the same count and under the same terms, the result for `O=C1NC(=O)C(c2ccccc2)=C1Nc1ccc(Cl)c(C(=O)O)c1` [SB-390532] reads 20%.

Another assay has as its system ERBB2. Particulars: concentration: 1 μM,replicates: in singlicate; n = 1.
With `O=C1NC(=O)C(c2ccccc2)=C1Nc1cc(Cl)c(O)c(Cl)c1` [SB-390530], the “%Inh” value came to 0%.
The same measure, in the same setting: the figure for `O=C1NC(=O)C(c2ccccc2Cl)=C1Nc1cccc(C(=O)O)c1` [SB-390526] is 0%; for `O=C1NC(=O)C(c2ccc(Cl)cc2)=C1Nc1ccccc1` [SB-317661] it is 19%; for `COc1ccc(C2=C(Nc3cccc(Cl)c3)C(=O)NC2=O)cc1` [SB-326892] it is 8%.
The same measure, in the same setting: the figure for `O=C1NC(=O)C(c2ccc(Cl)cc2)=C1Nc1cccc(O)c1` [SB-333613] is 10%.
The same measure, in the same setting: the figure for `O=C(O)c1ccc(-c2nc(-c3ccc(F)cc3)c(-c3ccncc3)[nH]2)cc1` [SB-202620] is 22%.
On to `O=C1NC(=O)C(c2ccc(Cl)cc2)=C1Nc1ccc(O)c(Cl)c1` [SB-405367], for which the “%Inh” value worked out at 0%.
For `O=C1NC(=O)C(c2ccccc2Cl)=C1Nc1ccccc1` [SB-376715], the “%Inh” value came to 14%.
On the same count and under the same terms, the result for `Cc1ccc(C)c(Oc2nccc(-c3c(-c4ccc(F)cc4)ncn3C3CCNCC3)n2)c1.O=C(O)C(F)(F)F.O=C(O)C(F)(F)F.O=C(O)C(F)(F)F` [SB-284852] reads 90%.
On the same count and under the same terms, the result for `O=C1NC(=O)C(c2ccc(Cl)cc2)=C1Nc1cccc(C(=O)O)c1` [SB-360737] reads 0%; that for `Cc1cc(C)cc(Oc2nccc(-c3c(-c4ccc(F)cc4)ncn3C3CCNCC3)n2)c1.O=C(O)C(F)(F)F.O=C(O)C(F)(F)F.O=C(O)C(F)(F)F` [SB-284851], 85%; that for `COc1cccc(C2=C(Nc3ccc(SC)cc3)C(=O)NC2=O)c1` [SB-331032], 7%.
On to `O=C1NC(=O)c2c1c(-c1ccccc1)cc1[nH]c3ccc(O)cc3c21`, for which the “%Inh” value turned out to be 11%.
Still for that read-out and setting: the figure for `CSc1ccc(NC2=C(c3cccc(Cl)c3)C(=O)NC2=O)cc1` [SB-341528] is 0%; for `CS(=O)(=O)c1ccccc1-c1nc(-c2ccc(F)cc2)c(-c2ccncc2)[nH]1` [SB-213663] it is 44%.
Take `O=C1NC(=O)C(c2ccccc2)=C1Nc1ccc(Cl)c(C(=O)O)c1` [SB-390532]: the “%Inh” value amounted to 35%.
